{"source": "PubChem BioAssay AID485344", "about": "(National Center for Advancing Translational Sciences (NCATS), 2010)", "note": "Several values for one entry are separate records, joined by “and”; a condition that tells them apart may be missing. Equal entries are not always repeated. About 6,900 (2%) of roughly 340,000 compounds were called active. Rule as the data show it: active = inhibition above about 30%; inactive = below that, where a call was filed. Only a part is listed here, and it is no random draw. The source gives no active or inactive call for entries shown without one.", "data": [{"biological_target": "D(2) dopamine receptor (Homo sapiens) (UniProt P14416)", "sequence (P14416 whole entry, looked up)": "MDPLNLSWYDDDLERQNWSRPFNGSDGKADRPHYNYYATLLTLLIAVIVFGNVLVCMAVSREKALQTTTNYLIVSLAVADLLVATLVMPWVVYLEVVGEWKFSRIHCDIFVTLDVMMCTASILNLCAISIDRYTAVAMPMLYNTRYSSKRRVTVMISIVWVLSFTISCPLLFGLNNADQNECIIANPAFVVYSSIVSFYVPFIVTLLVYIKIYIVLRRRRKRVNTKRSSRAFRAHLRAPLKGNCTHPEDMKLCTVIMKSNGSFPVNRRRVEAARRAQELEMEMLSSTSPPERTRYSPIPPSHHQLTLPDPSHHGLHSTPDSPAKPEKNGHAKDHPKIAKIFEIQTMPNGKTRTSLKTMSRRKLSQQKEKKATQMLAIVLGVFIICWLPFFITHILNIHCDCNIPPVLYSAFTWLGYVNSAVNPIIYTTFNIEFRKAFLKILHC", "experiment": "HTS Assay for Allosteric Antagonists of the Human D2 Dopamine Receptor: Primary Screen for Antagonists; also: 0% is about no effect", "settings": "HEK293 TREx D2 cells, calcium flux, dopamine EC80; at 10 µM; stronger effect = higher value", "procedure,_shortened": "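Tetracycline-induced HEK293 T-REx cells expressing D2 force-coupled to calcium signalling were dye-loaded, exposed to compound for 180 s, then challenged with an EC80 of dopamine; calcium flux was followed kinetically for a further 180 s.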", "values": [{"smiles": "COc1ccc(-c2noc(CSc3nnc(C)n3-c3cccc(C)c3)n2)cc1", "inhibition": "-6.82%"}, {"smiles": "COc1ccc(O)c(C2=Nc3ccccc3N=C(c3ccccc3)C2)c1", "inhibition": "4%"}, {"smiles": "COc1cc(C(=O)NCCc2csc(-c3ccc(Cl)cc3)n2)cc(OC)c1OC", "inhibition": "-15.4%"}, {"smiles": "CCOC(=O)c1nc(Nc2ccc(C(=O)OC(C)C)cc2)c2ccccc2n1", "inhibition": "2.18%"}, {"smiles": "COc1ccccc1NC(=O)c1oc2ccccc2c1NC(=O)Cc1ccccc1", "inhibition": "-11.2%"}, {"smiles": "Fc1ccc(-n2ncc3c(Nc4ccc5c(c4)OCCO5)ncnc32)cc1", "inhibition": "0.0105%"}, {"smiles": "Cc1ccc(N2CCN(C(=O)c3cc4cc5ccc(C)cc5nc4s3)CC2C)cc1", "note": "(stereo not drawn)", "inhibition": "-2.23%"}, {"smiles": "Cc1ccc(Nc2sc(C(=O)c3ccccc3)c(N)c2S(=O)(=O)c2ccccc2)cc1Cl", "inhibition": "2.45%"}, {"smiles": "CC(=O)c1ccc(OCC(O)CN2CCN(c3ccccn3)CC2)cc1", "note": "(stereo not drawn)", "inhibition": "active: 88.2%"}, {"smiles": "CCc1ccc(CNC(=O)Cn2nc(-c3ccc(C)cc3)ccc2=O)cc1", "inhibition": "15.9%"}, {"smiles": "COc1ccccc1N1CCN(C(=O)CCS(=O)(=O)c2ccc3c(c2)oc(=O)n3C)CC1", "inhibition": "-1.64%"}, {"smiles": "O=C(c1ccccc1)c1c2c(cc3sc4ccccc4[n+]13)-c1cccc3cccc-2c13", "inhibition": "active: 44.5%"}, {"smiles": "CCc1ccc(NCc2cc3ccc(OC)cc3n(CC(=O)Nc3c(C)cc(C)cc3C)c2=O)cc1", "inhibition": "2.04%"}, {"smiles": "CC(C)Oc1ccc(C(=O)N(Cc2ccc(N(C)C)cc2)C2CCS(=O)(=O)C2)cc1", "note": "(stereo not drawn)", "inhibition": "-13.6%"}, {"smiles": "Cn1nnc2c(N3CCN(c4ccc(F)cc4)CC3)ncnc21", "inhibition": "-8.33%"}, {"smiles": "COc1ccc(Cl)cc1NC(=O)Cn1ccn(-c2cc(C)cc(C)c2)c(=O)c1=O", "inhibition": "15.4%"}, {"smiles": "Cc1ccccc1CNC(=O)CCS(=O)(=O)c1cc2c3c(c1)CCN3C(=O)CC2", "inhibition": "-1.86%"}, {"smiles": "CCOc1cccc(CNC(=O)c2ccc(N3CCCC3)c(NC(=O)NCc3ccccc3)c2)c1", "inhibition": "-18.1%"}, {"smiles": "O=C(NCc1ccccc1)c1ccc2c(c1)CCN2S(=O)(=O)c1ccc(Cl)cc1", "inhibition": "-16.2%"}, {"smiles": "CCn1cc(C(=O)NCCc2ccc(OC)c(OC)c2)c(=O)c2cc(S(=O)(=O)N(C)C3CCCCC3)ccc21", "inhibition": "17.1%"}, {"smiles": "COc1ccc(-c2noc(CN(C(=O)C(C)Oc3ccc(C)cc3)C(C)C)n2)cc1", "note": "(stereo not drawn)", "inhibition": "-3.07%"}, {"smiles": "COc1ccc2cc3c(N)nn(C(=O)c4ccccc4Cl)c3nc2c1", "inhibition": "20.4%"}, {"smiles": "CCOc1ccc(NC(=O)N2CCN(c3ccc(Cl)c(Cl)c3)CC2)cc1", "inhibition": "-18.9%"}, {"smiles": "CCCn1cc(S(=O)(=O)CC(=O)NC2CCCCC2)c2ccccc21", "inhibition": "active: 50.5%"}, {"smiles": "Cc1cc(OC(C)C(=O)N(Cc2ccc(N(C)C)cc2)Cc2ccco2)ccc1Cl", "note": "(stereo not drawn)", "inhibition": "4.56%"}, {"smiles": "Cc1ccccc1C(=O)Nc1cccc(OCc2cc(=O)n3cccc(C)c3n2)c1", "inhibition": "-15.1%"}, {"smiles": "Cc1ccc(C)c(NC(=O)Cn2cc(S(=O)(=O)Cc3cccc(Cl)c3)c3ccccc32)c1", "inhibition": "4.46%"}, {"smiles": "CCc1ccc(NC(=O)CN2C(=O)CSc3ccc(S(=O)(=O)N(C)C)cc32)cc1", "inhibition": "-6.1%"}, {"smiles": "COc1cccc(NC(=O)Cn2cc(S(=O)(=O)Cc3ccccc3F)c3ccccc32)c1", "inhibition": "0.145%"}, {"smiles": "CCOC(=O)N1CCN(Cc2nc3cc(NC(=O)c4cccc(C)c4)ccc3n2C(C)C)CC1", "inhibition": "2.81%"}, {"smiles": "Cc1ccc(S(=O)(=O)c2nnn3c2nc(NCc2cccs2)c2sccc23)cc1", "inhibition": "14%"}, {"smiles": "O=C(c1cnn(-c2ccc(F)cc2)c1-n1cccc1)N1CCN(c2ccc(Cl)cc2)CC1", "inhibition": "3.38%"}, {"smiles": "COc1ccccc1NC(=O)Cn1c(=O)c(CNc2ccccc2)cc2cc(OC)c(OC)cc21", "inhibition": "0.527%"}, {"smiles": "Cc1cccc(CNC(=O)c2ccc3c(c2)c(C)c(C)n3Cc2ccccc2)c1", "inhibition": "5.12%"}, {"smiles": "COc1ccccc1C1C=C(c2ccc(C(C)C)cc2)Nc2nnnn21", "note": "(stereo not drawn)", "inhibition": "-1.17%"}, {"smiles": "CSc1ncc(Cl)c(C(=O)N(Cc2ccc(C)cc2)C2CCS(=O)(=O)C2)n1", "note": "(stereo not drawn)", "inhibition": "14%"}, {"smiles": "Cc1cc(C)cc(OCc2cc(=O)n3c(-c4ccccc4)csc3n2)c1", "inhibition": "14.3%"}, {"smiles": "Fc1ccc(-n2ncc3c(Nc4cccc(Cl)c4)ncnc32)cc1", "inhibition": "26.1%"}, {"smiles": "COc1cc(OC)cc(-c2nc3nc(C)c(CCC(=O)Nc4ccc(C)cc4C)c(C)n3n2)c1", "inhibition": "-1.6%"}, {"smiles": "O=S(=O)(c1ccccc1)c1nnn2c1nc(NCc1ccc(Cl)cc1)c1sccc12", "inhibition": "-5.59%"}, {"smiles": "CCN(CC)S(=O)(=O)c1ccc(C(=O)Nc2nc3ccc(Cl)cc3s2)cc1", "inhibition": "1.88%"}, {"smiles": "O=C1CCc2cc(S(=O)(=O)NCc3ccccc3Cl)cc3c2N1CC3", "inhibition": "5%"}, {"smiles": "O=C1NC(NS(=O)(=O)c2ccccc2)(C(F)(F)F)C(=O)N1c1ccc(F)cc1", "note": "(stereo not drawn)", "inhibition": "active: 32.9% and 15.6%"}, {"smiles": "Cc1cc(N2CCC(C(=O)N(CC(C)C)CC(C)C)CC2)n2nc(C)c(-c3ccc(Cl)cc3)c2n1", "inhibition": "-9.56%"}, {"smiles": "COc1cccc(NC(=O)c2oc3ccccc3c2NC(=O)C2CCCCC2)c1", "inhibition": "20.3%"}, {"smiles": "CCc1ccccc1NC(=O)CCCN1C(=O)CCn2nc(-c3cn(C)c4ccccc34)cc21", "inhibition": "-26.9%"}, {"smiles": "COc1ccc(C(=O)/C=C/c2cn(CC(O)CN3CCc4ccccc43)c3ccccc23)cc1", "note": "(stereo not drawn)", "inhibition": "-2.26%"}, {"smiles": "CCOc1ccc(NC(=O)CSc2oc(-c3ccccc3)nc2S(=O)(=O)c2ccc(Cl)cc2)cc1", "inhibition": "-4.32%"}, {"smiles": "COC(=O)c1cc(NC(=O)c2cc3sccc3n2Cc2ccc(Cl)cc2)cc(C(=O)OC)c1", "inhibition": "7.35%"}, {"smiles": "CCOCc1cc(CN2CCN(c3ccccc3OC)CC2)c(O)c2ncccc12", "inhibition": "1.82%"}, {"smiles": "O=C(Cn1c(=O)n(Cc2nc(-c3ccccc3)no2)c(=O)c2ccccc21)Nc1cccc(Cl)c1", "inhibition": "-17%"}, {"smiles": "COc1ccc(S(=O)(=O)N2CCN(Cc3nc4ccc(C)cc4o3)CC2)cc1", "inhibition": "10.1%"}, {"smiles": "COc1ccc(-c2c(C)c3ccc(O)c(CN4CCCC(C)C4)c3oc2=O)cc1OC", "note": "(stereo not drawn)", "inhibition": "14.9%"}, {"smiles": "O=C1CCc2cc(S(=O)(=O)NC(C(=O)Nc3cccc(F)c3)c3ccccc3)ccc2N1", "note": "(stereo not drawn)", "inhibition": "-9.7%"}, {"smiles": "COCCCNC(=O)c1ccc2c(c1)N(Cc1ccccc1F)C(=O)c1ccccc1S2=O", "note": "(stereo not drawn)", "inhibition": "-5.44%"}, {"smiles": "COc1ccc(-c2nnc(SCC(=O)Nc3ccc(C)c(C)c3)s2)cc1", "inhibition": "-3.2%"}, {"smiles": "CCOc1ccc(N2C(=O)c3[nH]nc(-c4ccc(OC)cc4)c3C2c2cccs2)cc1", "note": "(stereo not drawn)", "inhibition": "12.7%"}, {"smiles": "Oc1ccccc1Nc1nc2ccccc2n2nnnc12", "inhibition": "-0.618%"}, {"smiles": "O=C(NCc1ccco1)c1ccc2c(c1)N(Cc1ccc(Cl)cc1)C(=O)c1ccccc1S2(=O)=O", "inhibition": "23.8%"}, {"smiles": "CCN(CC(=O)Nc1cc(Cl)ccc1C)C(=O)CSCc1c(C)noc1C", "inhibition": "active: 32.7%"}, {"smiles": "COC(=O)c1nnn(-c2ccc(Br)cc2)c1C(=O)OC", "inhibition": "0.354%"}, {"smiles": "CN(Cc1ccccc1)c1ccc(-c2nc(-c3ccncc3)no2)cc1[N+](=O)[O-]", "inhibition": "2.52%"}, {"smiles": "CCOC(=O)CC1C(=O)NCCN1c1nc2ccc(C)cn2c(=O)c1/C=C1\\SC(=S)N(C(C)CC)C1=O", "note": "(stereo not drawn)", "inhibition": "active: 31.8%"}, {"smiles": "CCOC(=O)CC(NC(=O)CCc1c(C)nc2ncnn2c1C)c1ccc(C)cc1", "note": "(stereo not drawn)", "inhibition": "0.308%"}, {"smiles": "O=C(NCCC1=CCCCC1)C1CCN(C(=O)N2CCOc3ccc(Cl)cc32)CC1", "inhibition": "-18.6%"}, {"smiles": "Cc1cn2c(=O)c(S(=O)(=O)Nc3ccc(F)cc3F)c(C)nc2s1", "inhibition": "-8.81%"}, {"smiles": "COc1cccc(NC(=O)C2CCCN(S(=O)(=O)c3cccc4nonc34)C2)c1", "note": "(stereo not drawn)", "inhibition": "-7.86%"}, {"smiles": "COc1ccc(C(=O)Nc2ccc3c(c2)CCCN3S(=O)(=O)c2ccc(C)cc2)c(OC)c1", "inhibition": "-21.6%"}, {"smiles": "CCc1ccc(S(=O)(=O)c2cn(C)c3cc(N4CCCC4)c(F)cc3c2=O)cc1", "inhibition": "-8.01%"}, {"smiles": "CCOc1ccc(-n2c(SCC(N)=O)nc3c(oc4ccccc43)c2=O)cc1", "inhibition": "11%"}, {"smiles": "COc1cccc(NC(=O)CSc2nc(-c3ccccc3Cl)nc3c2Cc2c(CO)cnc(C)c2O3)c1", "inhibition": "16%"}, {"smiles": "CCOC(=O)C1=C(CS(=O)(=O)c2ccc(OC)c(Cl)c2)NC(=O)NC1c1cccc(OC)c1", "note": "(stereo not drawn)", "inhibition": "8.98%"}, {"smiles": "CC(=O)Nc1c(C)nn(-c2ccccc2)c1N1CCC(C(=O)NCc2ccccc2Cl)CC1", "inhibition": "-21.3%"}, {"smiles": "O=C(CCn1nc(-c2ccc(Cl)cc2)ccc1=O)NCCc1ccccc1", "inhibition": "14.6%"}, {"smiles": "Cc1ccc(S(=O)Cc2nc(-c3ccc(C(=O)NCc4cccc(C)c4)cc3)oc2C)cc1", "note": "(stereo not drawn)", "inhibition": "3.03%"}, {"smiles": "CCOC(=O)c1c(NC(=O)CSc2cn(CCNC(=O)c3c(F)cccc3F)c3ccccc23)sc2c1CCC2", "inhibition": "-13.7%"}, {"smiles": "COc1ccc(CCN2C(=O)c3[nH]nc(-c4ccccc4O)c3C2c2ccc(OC)c(OC)c2)cc1", "note": "(stereo not drawn)", "inhibition": "-0.646%"}, {"smiles": "CCOC(=O)c1noc2ncnc(Nc3cccc(OC)c3)c12", "inhibition": "-9.27%"}, {"smiles": "CCOC(=O)COc1ccc(F)cc1C(=O)c1ccn2nc(-c3ccc(Cl)cc3)cc2n1", "inhibition": "-2.35%"}, {"smiles": "CCCn1c(=O)c2sccc2n2c(CCCC(=O)NCc3ccccc3)nnc12", "inhibition": "4.95%"}, {"smiles": "O=C(COc1ccccc1Cl)Nc1ccc2nc(SCC(=O)N3CCCC3)sc2c1", "inhibition": "4.34%"}, {"smiles": "Cc1ccc(S(=O)(=O)Nc2cc3c(cc2N2CCOCC2)n(C)c(=O)n3C)cc1", "inhibition": "1.06%"}, {"smiles": "CCC(=O)Oc1ccc(C2Nc3ccccc3-c3nnc(SC)nc3O2)cc1", "note": "(stereo not drawn)", "inhibition": "0.817%"}, {"smiles": "Cc1ccc(NC(=O)N2CCN(c3cc(-c4noc(C)n4)ccc3C)CC2)c(F)c1", "inhibition": "25.5%"}, {"smiles": "Cc1ccc2nc(-c3cc(NC(=O)COc4ccc(C)c(C)c4)ccc3Cl)oc2c1", "inhibition": "-3.56%"}, {"smiles": "COC(=O)c1cc(C)nc2c1c(=O)nc(SCc1ccccc1C)n2C1CC1", "inhibition": "1.82%"}, {"smiles": "COC(=O)C1CCN(S(=O)(=O)c2ccc(N3CCCCS3(=O)=O)cc2)CC1", "inhibition": "-8.32%"}, {"smiles": "CCc1nn(CCCC(=O)N2CCN(c3cccc(OC)c3)CC2)c(=O)c2cc3occc3n12", "inhibition": "5.75%"}, {"smiles": "Cc1c(-c2nc(-c3ccc4c(c3)OCO4)no2)nnn1-c1ccc(C(C)C)cc1", "inhibition": "6.46%"}, {"smiles": "Cc1ccc(C(=O)NCC(c2ccc3c(c2)OCO3)N2CCOCC2)cc1", "note": "(stereo not drawn)", "inhibition": "25.7%"}, {"smiles": "Cc1cccc(NC(=O)C(Cc2ccccc2)NS(=O)(=O)c2ccc3c(c2)c(=O)n(C)c(=O)n3C)c1", "note": "(stereo not drawn)", "inhibition": "10.1%"}, {"smiles": "CC(=O)c1cccc(NS(=O)(=O)c2cc3c(cc2C)N(C(C)=O)CCO3)c1", "inhibition": "14.2%"}, {"smiles": "Cc1ccc(-c2nc(C(=O)NCc3ccccc3Cl)c3n2CCCCC3)cc1", "inhibition": "-14.3%"}]}]}
